Whole data set: some 33,000 sequences, median “E-score (-0.5 to 0.5)” near -0.016, cut for the highest 2% near 0.32. The list shows a part of the results.
Molecular target: T1, Stp1 (UniProt B3LFK1)
T1 sequence: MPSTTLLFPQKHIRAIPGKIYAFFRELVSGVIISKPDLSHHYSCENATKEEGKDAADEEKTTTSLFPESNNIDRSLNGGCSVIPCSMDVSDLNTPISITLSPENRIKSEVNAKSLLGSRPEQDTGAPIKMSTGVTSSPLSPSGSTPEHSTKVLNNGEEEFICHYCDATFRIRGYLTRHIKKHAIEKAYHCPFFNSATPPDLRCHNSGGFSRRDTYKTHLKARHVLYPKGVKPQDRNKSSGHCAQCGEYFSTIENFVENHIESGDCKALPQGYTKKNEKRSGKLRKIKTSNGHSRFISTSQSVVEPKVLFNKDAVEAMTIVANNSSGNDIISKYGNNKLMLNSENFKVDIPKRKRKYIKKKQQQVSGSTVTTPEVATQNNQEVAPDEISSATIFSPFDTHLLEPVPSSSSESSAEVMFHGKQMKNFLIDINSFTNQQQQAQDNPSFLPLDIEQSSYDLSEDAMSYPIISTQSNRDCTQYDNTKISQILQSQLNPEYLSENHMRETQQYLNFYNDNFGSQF
Experiment: PBM E-score (8-mer binding enrichment) (E-score (-0.5 to 0.5)); higher = stronger / more preferred TF binding; most listed sequences are background and not binding sites
Settings: protein concentration: 200 nM; construct: GST-full length
Procedure, shortened: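 Bound GST-tagged yeast transcription factors, applied at about 100-200 nM to double-stranded universal all-10-mer Agilent arrays, were detected with fluorescent anti-GST. Scans were normalised with masliner. A modified Wilcoxon-Mann-Whitney statistic, the E-score, was assigned to each ungapped eight-base word pooled with its reverse complement by the Universal PBM Analysis Suite.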

Row | Sequence | PBM E-score
1 | ATTCATTG | 0.126
2 | CCCCTCGG | -0.33
3 | AAGCTCAC | -0.136
4 | AGATGGCT | 0.0349
5 | CTACATAG | -0.0467
6 | CTGATCCC | -0.284
7 | GACCCGCC | -0.0933
8 | ATCACATG | -0.0426
9 | ACAACGGA | 0.161
10 | AGCTGCCC | -0.0851
11 | AGCGTAGA | -0.118
12 | AATCAGGA | -0.0394
13 | ATAAGTGA | -0.0348
14 | GCCAATAC | -0.0249
15 | GGACGATA | -0.203
16 | CGTCGCGC | -0.0299
17 | ATACGAGG | -0.0633
18 | AGCCGCGA | 0.159
19 | GTACACCA | -0.00569
20 | CAGACTCA | -0.144
21 | CATCCCGC | 0.141
22 | ACTCGCCG | 0.315
23 | GGACAGAA | -0.0242
24 | AAAGATTA | 0.0112
25 | CGCTCTTC | -0.175

Row | Sequence | PBM E-score
26 | ATGAGCGC | 0.157
27 | GATTCCGA | 0.087
28 | AAACTAGT | 0.0163
29 | GACGGGCA | -0.00302
30 | CGCAGTAC | 0.0649
31 | AACTCGAA | 0.107
32 | AGCTCATC | -0.307
33 | ACGTTATG | 0.0357
34 | GCTTATTA | 0.251
35 | CATGGCTA | -0.0935
36 | TCGCCTAA | 0.0152
37 | CCTAACAG | 0.121
38 | ACACGAAG | 0.161
39 | AGGAAAGG | -0.0432
40 | CTAGATCA | -0.0354
41 | ACCGTGAG | -0.086
42 | TTAAGGAA | 0.144
43 | GATGCAAC | -0.172
44 | CGTTCAAC | 0.154
45 | CTTGCTGC | 0.0525
46 | ATACGAAC | 0.153
47 | GAGGGGGA | -0.346
48 | AGCACCCA | -0.277
49 | CTCCCAGA | -0.286
50 | ACAGAAGC | 0.0829

Row | Sequence | PBM E-score
51 | GCCATGGC | 0.0492
52 | AGTTCCTA | 0.135
53 | CGGGATAC | -0.228
54 | ATAATGCG | -0.0164
55 | GGCTCCCC | -0.217
56 | AACTTAGT | -0.016
57 | ATCATGTG | -0.0209
58 | AAACTACA | 0.175
59 | ACGGCAGA | 0.367
60 | CATCGAAC | -0.0684
61 | ACTGATCG | -0.254
62 | GCCTGGGA | -0.201
63 | ATTTCGTC | 0.082
64 | TATAACAA | 0.172
65 | CCCGAGGG | -0.245
66 | GTGAAGTA | -0.0855
67 | AACCGTTC | 0.111
68 | AGGTGGGC | -0.203
69 | ACCCACCT | -0.302
70 | AGTCGAAT | -0.184
71 | CCTGTCAC | -0.0652
72 | CCGACAAC | 0.0549
73 | AATGAGAA | 0.0291
74 | CCTGTACC | -0.187
75 | CGTCACAG | 0.0515

Row | Sequence | PBM E-score
76 | ATAAGCGA | 0.129
77 | ACGCACAC | 0.104
78 | AGTGTGAT | 0.161
79 | GAGAAGTA | -0.124
80 | CGGGGAGC | -0.0674
81 | ATTGCACA | 0.156
82 | CGCACGAC | 0.0873
83 | ACTCGCTA | -0.128
84 | AATACCTG | -0.183
85 | CCTCCGAA | -0.24
86 | GAACAGGC | -0.0513
87 | CTGATTGA | -0.0409
88 | AATAGCGA | 0.0425
89 | AAACCACT | -0.152
90 | GCCCGGAC | -0.166
91 | ACCGATTA | 0.0803
92 | AATAGGTC | 0.0139
93 | TAGGCAAA | 0.143
94 | AAAGGCGG | 0.111
95 | ATTCCCAC | -0.151
96 | AATGAGGC | 0.266
97 | GCAATCAC | 0.0501
98 | GCACTTCC | -0.152
99 | ACGAGAAC | -0.0406
100 | CTCTTAAC | 0.0557

Row | Sequence | PBM E-score
101 | GCACGGTA | 0.196
102 | CTGACTCC | -0.204
103 | ATGTACGC | -0.0248
104 | ACGATATG | 0.0345
105 | GCCCGCAC | -0.0198
106 | ACATTTAA | 0.0374
107 | ACTCGGAG | -0.0524
108 | CCGCTCCG | 0.155
109 | CAGGCGCG | 0.113
110 | AACGATGA | -0.0204
111 | GTTTACGA | -0.1
112 | ACCCATAT | -0.00852
113 | CGAGAGCG | -0.133
114 | CAGCAACC | -0.25
115 | TACTATAA | 0.144
116 | ACAGAACC | -0.136
117 | TGTATAAA | -0.0312
118 | AAACCCTC | -0.0879
119 | AACGCTTG | -0.185
120 | TATCAAGA | -0.00546
121 | ACCTGATC | -0.184
122 | ATACCCAA | 0.0376
123 | GTCCCCAA | -0.0914
124 | GCAGGTAA | -0.0691
125 | AATGGCAC | 0.275

Row | Sequence | PBM E-score
126 | ACGTTGAC | -0.0723
127 | CAAGGCGG | 0.101
128 | AGAAGCTA | -0.0689
129 | CTCGCGCA | -0.0098
130 | ACACGCCT | 0.121
131 | AATGCGCG | 0.249
132 | GTGGTAGA | -0.195
133 | ATCTGCTA | 0.0189
134 | AATGACCG | 0.0598
135 | CCCCAGGA | -0.304
136 | GCTGATAC | 0.0381
137 | CCGTCGAC | -0.0596
138 | CGACCCCC | -0.384
139 | GAGGTCAC | -0.123
140 | GGACTCAC | -0.208
141 | CCACAGAC | -0.0942
142 | ACCGGTGG | -0.39
143 | TAATCACA | 0.00219
144 | ACCTTAAG | 0.097
145 | CCCCGAAA | -0.0653
146 | AATCGTCG | -0.00293
147 | ACGAAAGC | -0.0461
148 | ATGAACCG | -0.0954
149 | CATATAGA | 0.16
150 | ATCTGGTG | 0.065

Row | Sequence | PBM E-score
151 | CGAGGACA | -0.0278
152 | AGTCTGAT | -0.154
153 | GAGACACC | -0.167
154 | GGCTTCAC | -0.136
155 | GCCGATGA | -0.0281
156 | ATGCCCAA | -0.0229
157 | ACGCGATC | 0.00141
158 | AACGCCGG | 0.0903
159 | AAGTGTGT | 0.0121
160 | GGAAAGGA | -0.0901
161 | GACCTAAC | 0.0914
162 | CTTCTCGA | -0.0263
163 | CTAAACGA | 0.0761
164 | AACCTAGT | -0.144
165 | ATTTTTAC | 0.125
166 | ACTGTGTG | 0.0416
167 | GCGTAGAA | 0.0493
168 | CACGACCC | -0.238
169 | CGTCTATA | -0.0481
170 | ACAGTAGT | -0.0193
171 | ACTGAAAC | 0.2
172 | CTTTCCCC | -0.13
173 | ACACAAAA | 0.161
174 | CCGTCAGA | -0.253
175 | CCGCCGGC | 0.165

Row | Sequence | PBM E-score
176 | AGCTGCTG | 0.0686
177 | ATGTTGTA | 0.0794
178 | AGCACTAT | -0.121
179 | CTATGTAA | 0.143
180 | ATCGAATG | -0.124
181 | CGATCCAA | -0.061
182 | AGGCCTGA | -0.193
183 | AGTGGCTG | 0.0775
184 | GAGGAGTA | -0.172
185 | GCAACGTA | 0.0395
186 | CACACTTA | 0.0508
187 | AACGGCCT | 0.151
188 | CCTAAGTA | 0.0806
189 | AGTTAGAA | -0.0258
190 | CCGGTGTA | -0.0866
191 | CCCTTAAG | -0.0477
192 | AGTCTATC | -0.0873
193 | CTCGTGGC | 0.0434
194 | CCCCGATA | -0.29
195 | GGTGAACC | 0.135
196 | AATAACGC | 0.0286
197 | GCTTATCA | -0.0889
198 | TATATTGA | 0.0549
199 | ACAACATC | -0.00797
200 | ATCCGATC | 0.0298

Row | Sequence | PBM E-score
201 | CTAAAAGA | 0.0334
202 | GCTGAGTA | -0.067
203 | ATATACCA | -0.076
204 | ATTAATGG | 0.191
205 | ATACCGAC | -0.117
206 | ATTAACTA | 0.0707
207 | CCAACTGG | -0.00063
208 | GGCTAACA | 0.0133
209 | ACTCGTAC | -0.0899
210 | CGTATGGA | 0.117
211 | CGACCAAA | 0.183
212 | GTTCTCCA | -0.188
213 | AACTAGTT | 0.0227
214 | AAATATAC | 0.0576
215 | GGATCATA | 0.0577
216 | CCATATAG | 0.0156
217 | TAGGTGGA | -0.21
218 | ACCGGGCA | -0.123
219 | ATGCCTCG | 0.412

Reference: the supplement of paper PMC3334620
